According to PubChem BioAssay AID1508624 (National Center for Advancing Translational Sciences (NCATS), 2021):
Hit rate of the full screen: of about 48,000 compounds, about 120 (0.25%) were called active. About 4% were inconclusive and are not listed. The call rests on the fitted dose curve; in most records, active means well fitted activation curve with a large enough effect; inconclusive means small, poorly fitted or top-dose-only effect, or another doubt; inactive means no such curve, though single readings can be large or run the other way. The list shows a part of the results.

test: Primary qHTS for Identification of Small Molecule Activators of Huntingtin-Antisense Promoter Activity; details: HEK293 HTT-AS promoter firefly luciferase reporter, 24 h; series mostly up to 57.5 µM; activity change, positive = activation: at the top concentration; further: nearly all actives have a fitted effect of over 55% in size
Summary of the method: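 HEK293 luciferase promoter-reporter cells (2,500/well) plated 24 h, then compounds added at up to 57.5 uM final for 24 h at 37 °C. Firefly luminescence by Dual-Glo, normalized to vehicle (0%) and zero RLU (-100%).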

Activity change, positive = activation, inactive:
COc1ccc(CCNc2nc(-c3ccc(C)cc3)cc(C(F)F)n2)cc1OC -12.7%
Oc1c(C(c2ccccc2F)N2CCOCC2)sc2nc(-c3ccco3)nn12 (configuration not stated) -7.63%
CCOC(=O)C1CCN(c2c(C(=O)c3ccc(OCC)cc3)cnc3ccc(OC)cc23)CC1 -52.8%
Cc1nc2c(C(=O)NCc3ccccc3Cl)c[nH]n2c(=O)c1Cc1cccc(Cl)c1 -31.7%
CCN(c1ccccc1)S(=O)(=O)c1ccc2[nH]cc(C(=O)NC3CCCCC3)c(=O)c2c1 -39.5%
CC(NC(=O)CSc1n[nH]c(-c2ccccc2Cl)n1)c1nc2ccccc2n1C (configuration not stated) -18.3%
Cc1c(Cl)cccc1NC(=O)CC(c1cccs1)N1Cc2ccccc2C1=O (configuration not stated) -34.5%
CCOc1ccc(NC(=O)CN2CCN(Cc3ccccc3)S2(=O)=O)cc1 -10.1%
Cc1cc2[nH]c(=O)c(=O)[nH]c2cc1S(=O)(=O)Nc1ccc(OC(F)(F)F)cc1 -13.3%
Cc1cccc(OC(=O)c2cc(-c3ccc4c(c3)OCCO4)on2)c1C 22.4%
COc1cccc(CNC(=O)C(Cc2ccccc2)NS(=O)(=O)c2ccc3c(c2)oc(=O)n3C)c1 (configuration not stated) 5.95%
COc1ccc(-c2noc(CSc3nc(N)cc(=O)[nH]3)n2)cc1 -90.7%
Cc1cccc(NC(=O)c2ccc3nc(CCc4ccccc4)oc3c2)c1C 7.25%
CCOc1ccccc1C(=O)Nc1ccc2nc3c(c(Nc4ccc(OC)c(OC)c4)c2c1)CCCC3 -36.5%
Cc1ncc(CO)c2c1Oc1nc(-c3ccc(F)cc3)nc(SCc3ccc(F)cc3Cl)c1C2 -14.3%
Cc1cc(Nc2cccc(Cl)c2)nc2ccc(NC(=O)c3cccc(N(C)C)c3)cc12 -5.8%
CCCS(=O)(=O)N1CCC(N2CCN(Cc3ccc(F)cc3)C(=O)C2=O)CC1 -1.83%
COc1ccc(-c2noc(-c3nnn(-c4ccc(C(C)C)cc4)c3C)n2)cc1OC -6.71%
O=C(Nc1ccccc1)c1ccc2c(O)c(S(=O)(=O)c3ccc(Cl)cc3)c(=O)[nH]c2c1 -14.5%
COc1ccccc1C(=O)Nc1onc2c1CCCC2 0%
CCOC(=O)c1ccc(NC(=O)CN2Cc3ccccc3C2=O)cc1 1.1%
CCOc1ccc(C(=O)c2cn(CC(=O)Nc3ccc(F)c(F)c3)c3cc4c(cc3c2=O)OCCO4)cc1 -22.1%
CSc1ncc(Cl)c(C(=O)Nc2c(C(=O)c3ccc(C)c(F)c3)oc3ccccc23)n1 4.43%
COc1cccc(NC(=O)CCc2nc(-c3cccs3)no2)c1 -14.3%
CCOc1ccccc1NC(=O)CSC1=Nc2ccccc2C2=NC(CC(=O)NCc3ccc4c(c3)OCO4)C(=O)N12 (configuration not stated) -16.8%
Cc1nn(CC(=O)NCCc2ccccc2)c(=O)c2c1sc1ccccc12 15.9%
O=c1cc(-c2ccccc2)n2c(SCc3ccc(Br)cc3)nnc2[nH]1 3.44%
CCCCSCCCNC(=O)c1c[nH]c2ccc(S(=O)(=O)Nc3cccc(OC)c3)cc2c1=O -29.4%
Cc1cc2nc(N(Cc3cccnc3)C(=O)c3ccc(Cl)s3)sc2cc1C -13.4%
Cc1ccc(S(=O)(=O)NCC(c2ccc(N(C)C)cc2)N2CCc3ccccc32)cc1 (configuration not stated) -16.6%
COc1ccc(-n2ccnc(NCCc3ccc(Cl)cc3)c2=O)cc1OC -30.7%
CC(=O)N1c2ccc(S(=O)(=O)N(C)CC(=O)N(Cc3ccccc3)C(C)C)cc2CC1C (configuration not stated) -18.6%
CC(C)(C)c1ccc(C(=O)N2CCN(CCc3ccccn3)CC2)cc1 -9.67%
O=C(Cc1ccccc1)Nc1nnc2n1CCS2 2.02%
CCN(Cc1ccccc1)Cc1c(O)ccc2oc(C)c(C(=O)Nc3ccccc3C)c12 -40.7%
CCC(C)NC(=O)Cn1c(=O)n(-c2ccc(C)c(C)c2)c(=O)c2c(C)c(C(=O)N(CC)CC)sc21 (configuration not stated) -16.8%
CCOc1ccccc1C1C(C(=O)Nc2ccccc2)=C(C)Nc2c(C(=O)Nc3ccc(F)cc3)cnn21 (configuration not stated) -19.4%
CCn1cc(C(=O)N2CCN(c3ccc(OC)cc3)CC2)c2cc(OC)c(OC)cc2c1=O -4.77%
Cc1ccc(NC(=O)Cn2cc(C(=O)c3ccco3)c3ccccc32)cc1 -21.1%
CCOc1ccc(-c2cccc(NS(=O)(=O)c3ccccc3C(F)(F)F)c2)nn1 -15.7%
O=S(=O)(c1ccc2nc(Nc3cccc(F)c3)ccc2c1)N1CCCC1 -20.7%
Cc1ccccc1Cn1c2ccccc2c2cnn(CC(=O)N3CCC(C)CC3)c(=O)c21 -29.4%
Cc1ccc(S(=O)(=O)NCC(Nc2cccc(Cl)c2)c2ccccc2)cc1 (configuration not stated) -56.4%
CCc1ccc(NC(=O)N2CCC(N3CCN(Cc4ccc(C)cc4)C(=O)C3=O)CC2)cc1 -0.272%
CCn1c(C(=O)N2CCCC(C(=O)N3CCN(c4ccccc4)CC3)C2)cc2sccc21 (configuration not stated) -29.8%
COc1ccc(-c2cc3nccc(-c4cc(Cl)c(C)cc4O)n3n2)cc1 -32.6%
CCOc1cc(C(=O)NCc2nc(-c3cccc(C)c3)no2)cc(OCC)c1OCC -12.3%
COC(=O)c1ccccc1NC(=O)c1cc(CN2CCOCC2)on1 0.866%
CCc1cccc(C)c1Nc1c(-c2cccs2)nc2nc(C)cc(C)n12 -28.9%
O=C(CSc1nc2ccccc2nc1Cc1ccccc1F)Nc1cccc(C(F)(F)F)c1 -11%
COc1ccc(-c2onc(C)c2C)cc1S(=O)(=O)Nc1cc(Cl)ccc1C -35.1%
CCC(=O)Nc1ccc(CC)cc1-c1nc2ccccc2n(CC(=O)Nc2ccccc2C)c1=O -14%
Cc1ccc(NC(=O)Cn2c(=O)oc3cc(S(=O)(=O)N4CCCCC4)ccc32)c(C)c1 -45%
CCN(CC)c1ccc(NC(=O)CCS(=O)(=O)c2ccc3c(c2)oc(=O)n3C)c(C)c1 -12.7%
Cc1ccc(CNc2ncnc3onc(C)c23)cc1 -44.7%
CCCOc1ccc(C2c3c(-c4ccccc4O)n[nH]c3C(=O)N2Cc2cccnc2)cc1 (configuration not stated) -38.6%
CC(C)OCCCn1c(=O)c2ccccc2n2c(-c3cc(Cl)ccc3O)nnc12 9.17%
COc1cc(C(=O)Nc2ccc(-c3nc4ccccc4o3)c(O)c2)cc(OC)c1OC -15.4%
Cc1cn2c(=O)cc(COC(=O)c3ccc(NC(=O)COc4ccc(C)c(C)c4)cc3)nc2s1 -11.3%
CCc1ccccc1NC(=O)CSc1nnc(COc2ccccc2Cl)o1 -2.94%
CCOc1ccc(-c2cc(C(=O)NCCCOC)c3c(-c4ccc(CC)cc4)[nH]nc3n2)cc1 -8.38%
COc1cc2c(cc1OC)C(COc1ccc(F)cc1)N(C(=O)Cc1ccccc1)CC2 (configuration not stated) -19%
Cc1ccc(CN2c3ccccc3-c3nc(SCC(=O)Nc4c(C)cc(C)cc4C)ncc3S2(=O)=O)cc1 17.4%
C=CC(=O)Nc1cc2c(Nc3ccc(F)c(Cl)c3)ncnc2cc1C#CC(C)(C)N1CCN(C)CC1 -16.1%
CCOc1ccccc1C(=O)N1CC(=O)Nc2ccc(C)cc2C1c1ccccc1 (configuration not stated) -16.2%
COc1ccc(NC(=O)Nc2cc(-c3cn4cccnc4n3)ccc2OC)cc1 -33.3%
CCOc1ccccc1NC(=O)N1CCc2c(sc3c2CCCC3)C1c1ccccc1 (configuration not stated) 0%
CNC1CCC(N(Cc2cccc(-c3ccncc3)c2)C(=O)c2sc3c(F)ccc(F)c3c2Cl)CC1 (configuration not stated) -16%
Cc1nn2c(=O)cc(COc3ccc(/C=C(\C#N)C(=O)Nc4ccccc4)cc3Cl)nc2s1 -6.27%
O=C(OCc1ccccc1Cl)c1ccc(-c2nnn(Cc3ccc(F)cc3)n2)cc1 3.17%
COc1ccc(C(=O)NCCn2cc(SCC(=O)Nc3ccc(F)cc3)c3ccccc32)cc1 -46.3%
CNC(=O)c1cc(Oc2ccc(NC(=O)Nc3ccc(Cl)c(C(F)(F)F)c3)cc2)ccn1
CCN1CCN(C(=O)N[C@@H](C(=O)N[C@@H]2C(=O)N3[C@@H]2SC(C)(C)[C@H]3C(=O)O)c2ccccc2)C(=O)C1=O 0.686%
CCn1cc(C(=O)NCCc2ccc(Cl)cc2)c(=O)c2cc(S(=O)(=O)N3CCCCCC3)ccc21 -3.62%
Cc1nn(CCCC(=O)Nc2cccc(C(F)(F)F)c2)c(=O)c2nn(-c3ccccc3)c(C)c12 -4.63%
COc1cccc2c1C(=O)c1c(O)c3c(c(O)c1C2=O)C[C@@](O)(C(C)=O)C[C@@H]3O[C@H]1C[C@H](N)[C@H](O)[C@H](C)O1 -22.8%
COc1cc(NC(=O)Cn2cnc3sc(C)c(S(=O)(=O)N4CCC(C)CC4)c3c2=O)cc(OC)c1OC 10.6%
Cc1ccc2c(=O)c(C(=O)c3ccccc3)cn(CC(=O)Nc3ccccc3C)c2n1 -6.33%
Cc1nc(-c2ccc(S(=O)(=O)NCc3ccc(OC(C)C)cc3)cc2)co1 -28%
O=C(COc1ccccc1F)Nc1ccc2nc(SCC(=O)N3CCCC3)sc2c1 2.3%
CCc1ccccc1NC(=O)CN1C(=O)c2cccnc2Sc2ccccc21 1.34%
CCn1c(=O)c2sccc2n2c(CCC(=O)Nc3ccc(OC)cc3OC)nnc12 -8.68%
Cc1ccc(Cn2c(CNC(=O)Cc3cccc([N+](=O)[O-])c3)nc3cccnc32)cc1 -20%
O=c1c2ccccc2n(Cc2c(F)cccc2Cl)c(=O)n1Cc1ccccc1 -28.7%
O=S(=O)(NCC(c1ccccc1)N1CCc2ccccc21)c1ccccc1 (configuration not stated) -34%
CCn1c(=N)c(C(=O)NCC2CCCO2)cc2c(=O)n3cc(C)ccc3nc21 (configuration not stated) -6.35%
CCn1c(=O)cc(OCC(=O)N2CCN(c3cccc(Cl)c3)CC2)c2ccccc21 -51.9%
COc1cc(C(=O)N2CCC(c3nc4ccccc4s3)CC2)cc(OC)c1OC -17.5%
CCCCOc1ccc(CNC(=O)C2CCCN(c3nnc(-n4c(C)ccc4C)s3)C2)cc1 (configuration not stated) -22.4%
Cc1ccc(S(=O)(=O)N2CCN(Cc3ccc4c(c3)OCO4)CC2)cc1 17.9% [at 11.5 µM, percent change from vehicle, -100% = no light]
CCc1ccc(-c2cc(C)no2)cc1S(=O)(=O)Nc1cc(OC)c(OC)c(OC)c1 -26.5%
COc1ccc(C2=C(C)C(=NCc3ccc(OC(C)C)cc3)NS2(=O)=O)cc1 -11.1%
